SMILES strings stand for the structures. The full ranking holds about 13,000 compounds; the median of “IFI” is about 4, and the highest 2% start at about 17. This is one part of the list.

The assay can be described thus: GSK_TCMDC: Inhibition Frequency Index (IFI). The number of non-kinase HTS assays where a compound showed > 50 % inhibition, expressed as a percentage of the number of such assays in which the compound was tested (-0 is zero). Format: functional.
The molecule `CCCc1ccc(Nc2nc(C)cc(N(CC)CCCN3CCCCC3)n2)cc1` registered an IFI of 13.9%.

For the molecule `COc1ccc(-c2nc(-c3ccc([N+](=O)[O-])cc3)no2)cc1OC`, the IFI was 0%.

In the case of `C#CCNC(=O)c1ccc(-c2ccnc(Nc3cccc(CCCN4CCOCC4)c3)n2)s1`, the IFI was 9.68%.

Molecule `Cc1[nH]c(C)c(-c2ccc(-c3ccc(OCC(F)(F)F)cc3)nc2)c(=O)c1Cl` yielded an IFI of -0%.

`O=C(NCc1ccc(Cl)c(Cl)c1)c1ccc(-c2nc3ccc(Cl)cc3[nH]2)cc1`: the IFI came out at 2.27%.

Molecule `CCCNc1ccc2nccc(CCN3CCC(NCc4ccc5c(n4)NC(=O)CS5)CC3)c2n1` yielded an IFI of 5.15%.

In turn, `Cc1cc(C2CCN(CCCCNC(=O)c3ccc(-c4ccc(C(F)(F)F)cc4)cc3)CC2)c(C)cc1OCC(N)=O` registered an IFI of 5.5%.

In turn, `Cc1ccc(F)c(OCC2CCCN(c3ccc(C(=O)NC4CC4)cn3)C2)c1` (stereo not given) showed an IFI of 0%.

Molecule `Cc1cccc2nc(-c3ccc(-c4ccc(NC(=O)Nc5cccc(C#N)c5)cc4)s3)[nH]c12` showed an IFI of 3%.

For the molecule `Cc1ccc(Nc2nccc(NCC(O)c3cccc(F)c3)n2)cc1` (stereo not given), the IFI stood at 9.71%.

In turn, `CC(Nc1cc(-c2ccccn2)nc(-c2ccccn2)n1)c1ccccc1` (stereo not given) yielded an IFI of 14%.

As for `COc1ccc(NC(=O)Nc2cccc(-c3cccc(-c4nc5ccccc5[nH]4)c3)c2)cc1`, the IFI was determined as 3.09%.

Take `CN(C)S(=O)(=O)c1ccc(Nc2nc(NCCC3C=NC=N3)nc3cc[nH]c(=O)c23)cc1` (stereo not given): the IFI turned out to be 0%.

Turning to `CCOc1c(Br)cc(Cl)cc1CNCCCNc1nc2ccccc2[nH]1`, the IFI was 5.71%.

Turning to `Cc1nc(C)c(-c2ccc(Oc3cccc(OC(F)(F)F)c3)cc2)c(O)c1Cl`, the IFI was 0%.

For `CC[C@H]1CN2CCc3c([nH]c4ccccc34)[C@@H]2C[C@@H]1CC1c2cc(OC)c(OC)cc2CCN1C` (stereo not given in full), the IFI worked out at 6.87%.

The molecule `Cc1ccc(CCC(C)NCC(O)c2cccc(C(F)(F)F)c2)cc1` (stereo not given) registered an IFI of 3.62%.

On to `O=[N+]([O-])c1ccc(C2=NN(S(=O)(=O)c3c(Cl)cc(Cl)cc3Cl)CCCC2)cc1`, for which the IFI came to 2.31%.

On to `CSc1cccc(NC(=O)c2cc3ccccc3oc2=O)c1`, for which the IFI was found to be 0.72%.

In the case of `CN(CC(=O)Nc1ccc(F)cc1)C(=O)c1ccc(-c2ccc(F)cc2)o1`, the IFI came out at 0%.

Take `CCN(CC)c1ccc(C(=O)Cn2ccc(=N)cc2)cc1`: the IFI stood at 2.24%.

For the molecule `CSc1ccc(CN2CCC(CNC(=O)c3cc(-c4ccccc4F)cs3)C2)cc1` (stereo not given), the IFI amounted to 12%.

As for `COc1cc(OC)cc(-c2nn(-c3ccc([N+](=O)[O-])cc3Cl)c(=S)n2Cc2ccco2)c1`, the IFI was 2.03%.

As to `CCC(CC)(CCC#N)CN(C[C@@H](O)[C@H](Cc1ccccc1)NC(=O)OC(C)(C)C)S(=O)(=O)c1ccc(OC)cc1`, the IFI came to 2.16%.

Regarding `Cc1nc(C)c(CC(=O)Nc2cccc(-c3cccc(-c4nc5cccc(C)c5[nH]4)c3)c2)s1`, the IFI came out at 14.9%.

In the case of `Cc1ccc(NC(=O)c2ccc3ncccc3c2)cc1OC1CCN(Cc2ccco2)C1` (stereo not given), the IFI amounted to 1.69%.

`CN(C)[C@@H]1C(O)=C(C(N)=O)C(=O)[C@@]2(O)C(O)=C3C(=O)c4c(O)ccc(C#Cc5ccccn5)c4C[C@H]3C[C@@H]12` gave an IFI of 14.7%.

`O=C(Cc1ccccc1)NC1CCN(c2ccnc3cc(Cl)ccc23)C1` (stereo not given) showed an IFI of -0%.

Turning to `CN(C)CCN(C)Cc1ccc(-c2ccc3c(Nc4ccc(F)cc4Cl)ccnc3c2)o1`, the IFI amounted to 9.86%.

`O=C(Nc1cccc(CN2CCCN(Cc3ccccc3)CC2)c1)c1cc2ccccc2s1` showed an IFI of 7.63%.

Regarding `N=C(N)Nc1ccc(C(=O)O)c(O)c1`, the IFI was -0%.

Regarding `CC(=O)N(C)c1cccc(CNc2cc(C)nc(Nc3ccc(C)cc3)n2)c1`, the IFI is 4.35%.

Turning to `CNc1ccc(CNCc2ccc(-c3ccc(-c4nc5cccc(C)c5[nH]4)s3)cc2)cc1`, the IFI was found to be 10.2%.

For the molecule `Cc1nc(C)c(CC(=O)Nc2ccc(-c3cccc(-c4nc5cccc(C)c5[nH]4)c3)cc2)s1`, the IFI was found to be 13%.

Regarding `CN1CCC(C(=O)Nc2ccc(-c3cccc(-c4nc5cc(C(F)(F)F)ccc5[nH]4)c3)cc2)CC1`, the IFI is 6.9%.

`O=C(Nc1cccc(-c2nn3ccccc3c2-c2ccnc(Nc3ccc(Cc4ccncc4)cc3)n2)c1)c1c(F)cccc1F`: the IFI was found to be 2.86%.

Turning to `CN(C)CCNCc1ccc(-c2ccc(-c3nc4cc(F)ccc4[nH]3)cc2)cc1`, the IFI worked out at 6.93%.

Molecule `CCC(C)OC(=O)C1=C(C)NC2=C(C(=O)CC(c3ccc(OC)c(OC)c3)C2)C1c1cccc(O)c1` (stereo not given) had an IFI of 1.99%.

Take `CC(Nc1nc(Nc2ccc(F)cc2)nc(SCC(N)=O)n1)c1ccccc1` (stereo not given): the IFI came to 4%.

As to `CC(CCCCC(=O)Nc1ccc(C(F)(F)F)cc1)NCC(O)c1cccc(Cl)c1` (stereo not given), the IFI came to 15%.

As for `O=C(Nc1cc(Cl)cc(Cl)c1)Nc1ccnc2ccccc12`, the IFI is 7.19%.

For the molecule `COc1ccc(CNCc2ccc(F)cc2)cc1-c1ccc(OC)c(S(=O)(=O)NCCN2CCCC2)c1`, the IFI worked out at 7.69%.

`Cc1cccc(C(=O)N2CCN(Cc3cccc(NC(=O)c4ccco4)c3)CC2)c1`: the IFI was found to be 0.76%.

In the case of `COc1c(F)ccc2ncc(Cl)c(CCN3CCC(NCc4ccc5c(n4)NC(=O)CS5)CC3)c12`, the IFI came out at 4.41%.

As to `Cc1ccc(CNC(=O)[C@H](Cc2ccccc2)Nc2ccnc(NCC3CCCCC3)n2)cc1`, the IFI amounted to 11.1%.

With `CN(C)CCOC(=O)C1(O)CCC2CC1C2(C)C` (stereo not given), the IFI is 0.74%.

`c1ccc2nc(NCCCCCCCCNc3ccc4ccccc4n3)ccc2c1` had an IFI of 8.46%.

On to `Cc1cc(OCC2CCN(c3ccc(C(=O)NC4CC4)cn3)CC2)ccc1F`, for which the IFI turned out to be 2%.

Consider `CNc1ccc(CNCc2ccc(-c3ccc(-c4nc5cc(C(F)(F)F)ccc5[nH]4)cc3)cc2)cc1`, for which the IFI was 14.1%.

Regarding `CC(C)(C)c1ccc(CN2CCC(CNC(=O)c3cc(-c4ccccc4Cl)cs3)C2)cc1` (stereo not given), the IFI was 12.5%.

In the case of `CCOC(=O)c1c(CNc2ccncc2)n(C)c2cc(Br)c(OC(C)=O)cc12`, the IFI was found to be 0.74%.

Turning to `Cc1ccc(C)c(NC(=O)NCCNc2ccnc(Nc3ccc(F)cc3)n2)c1`, the IFI came to 6.06%.

For the molecule `COc1ccc(CCNC(C)Cc2ccc(C(=O)Nc3ccc(CC(C)NCCc4cccc(Cl)c4)cc3)cc2)cc1` (stereo not given), the IFI was found to be 9.86%.

`Cc1ccc(Cn2ccc3c4c(N)nc(N)nc4ccc32)cc1`: the IFI was found to be 8.53%.

`Cc1nn(-c2ccccc2)c2c1C(c1ccc(C(C)C)cc1)N1C(=N2)N(Cc2ccccc2)c2ccccc21` (stereo not given) displayed an IFI of 1.43%.

`COc1cc(NC(=O)c2cccc([N+](=O)[O-])c2)cc(S(=O)(=O)c2ccc(Cl)cc2)c1` registered an IFI of 1.92%.

Regarding `CCc1nc2c(cnn2CC)c(NC2CCOCC2)c1CNC(=O)N1CCOCC1`, the IFI is 0%.

As to `O=C(NC1CCN(c2ccnc3cc(Cl)ccc23)C1)c1cccc(F)c1` (stereo not given), the IFI was 1.52%.

As to `COc1cc2ncnc(Nc3ccc(OC(F)(F)c4ccccc4)cc3)c2cc1OC`, the IFI came to 1.44%.

Regarding `Cc1cccc(-n2c(Nc3ccc(C)c(Cl)c3)nc3ccc(S(=O)(=O)NC(C)C(C)C)cc32)c1` (stereo not given), the IFI is 2.24%.

In the case of `COc1ccccc1NC(=S)N/N=C/c1ccc(O)cc1O`, the IFI is 7.19%.

Regarding `O=C(NC1CC1c1ccccc1)N(CCCn1ccnc1)Cc1csc(-c2ccc(CNCc3ccccc3)cc2)n1` (stereo not given), the IFI came out at 4.7%.

In turn, `O=C(/C=C/c1c(Cl)cccc1Cl)NC1CCC(CN2CCC(Cc3cc4ccccc4[nH]3)CC2)CC1` (stereo not given) came in with an IFI of 9.16%.

The molecule `COc1cc(C=Cc2ccc3ccccc3n2)cc(Br)c1OCC(=O)N(C)C` gave an IFI of 4.44%.

Molecule `CCC[C@@H]([C@@H](CC(C)C)C(=O)N[C@@H](CCCCNC(=O)OCc1ccccc1)C(=O)Nc1ncccn1)N(O)C=O` had an IFI of 2.91%.

For the molecule `CCCCCc1ccc(NC(=O)Nc2ccc(Cn3ncc(N4CCCNCC4)c(Cl)c3=O)cc2)cc1`, the IFI was 9.09%.

Molecule `O=C(Nc1ccc(OC(F)(F)F)cc1)Nc1ccc([N+](=O)[O-])cc1` came in with an IFI of 20.1%.

For the molecule `Cc1cccc(-n2c(=O)c3c4c(sc3n3c(SCCC(C)C)nnc23)CCCC4)c1`, the IFI was 2.14%.

Molecule `Cc1csc(-c2ncc(OC[C@@H](N)Cc3ccccc3)cc2-c2ccc3[nH]nc(C)c3c2)c1` had an IFI of 10.8%.

`O=C(Nc1cccc(-c2cccc(-c3nc4cc(C(F)(F)F)ccc4[nH]3)c2)c1)c1ccc(=O)[nH]n1` gave an IFI of 2.73%.

Turning to `N#Cc1ccc(CN2CCCN(c3ccc(NC(=O)c4ccc(F)cc4)cc3)CC2)cc1`, the IFI came out at 8.33%.

`CNC(=N)c1ccc(NC(=O)Nc2ccc(C(=N)NC)cc2)cc1` showed an IFI of 1.46%.

As to `CN(Cc1ccc(-c2ccc(C(F)(F)F)cc2)cc1)C(=O)Cn1c(CCc2cccc(F)c2F)cc(=O)c2ccc(OCCCN3CCCCC3)cc21`, the IFI worked out at 6.99%.

As for `O=C(NCCCCN1CCC(c2cccc3ccccc23)CC1)c1ccc(-c2ccc(C(F)(F)F)cn2)cc1`, the IFI is 1.48%.

`CNCCNCc1cccc(-c2ccc(-c3nc4ccccc4[nH]3)s2)c1`: the IFI was 8%.

In turn, `Cc1nc2nc(N)nc(N)c2c(C)c1Cc1ccc(C#N)cc1` registered an IFI of 2.9%.

Turning to `CCC(C)c1cccc(C(C)CC)c1OCCCON1C(N)=NC(N)=NC1(C)C` (stereo not given), the IFI was found to be 24.1%.

In the case of `CCCCNC(=O)[C@@H]1CCCN1C(=O)c1ccc(O)c(-c2ccc(Cl)c(Cl)c2)c1`, the IFI came to 0.74%.

Turning to `O=[N+]([O-])c1ccc(C=NNc2nc(Nc3ccccc3)nc(Nc3ccccc3)n2)o1`, the IFI is 9.93%.

Consider `Cc1[nH]c(CNCCCNc2cc(=O)c3ccccc3[nH]2)c(Br)c1Br`, for which the IFI came to 2.86%.

In the case of `Clc1ccc2c(NCc3ccccn3)ccnc2c1`, the IFI was found to be 0%.

Regarding `CC1CCCC(C)N1C[C@@H](O)CNS(=O)(=O)c1cccc(C(F)(F)F)c1` (stereo not given in full), the IFI was 1.98%.

`COc1ccc(-c2nc3c(N)nc(N)nc3nc2-c2ccccc2Cl)cc1.COc1ccc(-c2nc3nc(N)nc(N)c3nc2-c2ccccc2Cl)cc1` showed an IFI of 3.68%.

`COc1cccc(OC)c1C(=O)Nc1cccc(-c2nn3ccccc3c2-c2ccnc(Nc3cccc(F)c3)n2)c1` returned an IFI of 2.82%.

In turn, `Cc1ccccc1C1CCN(c2ccc(NC(=O)c3ccc(Cl)nc3)cc2)CC1` came in with an IFI of 2.04%.

Take `CCCc1cc(Cc2cnc(N)nc2N)cc(CCC)c1OCCCCC(=O)OCC`: the IFI is 7.91%.

`Cc1cccc2nc(-c3cccc(-c4ccc(NC(=O)CCc5c[nH]cn5)cc4)c3)[nH]c12`: the IFI was determined as 1.74%.

For the molecule `COc1cccc(CNc2ncc(-c3ccsc3)c(-c3nccs3)n2)c1`, the IFI worked out at 5.68%.

As for `CN1CCC(C(=O)Nc2cccc(-c3ccc(-c4nc5cc(F)ccc5[nH]4)cc3)c2)CC1`, the IFI worked out at 4.31%.

For `Fc1cccc2sc(Nc3nc(-c4ccccn4)cs3)nc12`, the IFI was 8%.

Values taken from ChEMBL document CHEMBL1157539, “Thousands of chemical starting points for antimalarial lead identification” (Nature, 2010).
